In all, about 410,000 compounds went through this assay and about 6,400 (1.6%) were called active. The shares of active, inactive and inconclusive entries below differ from those in the screen. The call rests on the fitted dose curve; in most records, active means well fitted inhibition curve with a large enough effect; inconclusive means small, poorly fitted or top-dose-only effect; inactive means no such curve, though single readings can be large or run the other way. No potency is given beside an inconclusive call; the fits are too rough.
The molecules below were run against Glucagon-like peptide 1 receptor (Homo sapiens) (UniProt P43220) (assay: qHTS of GLP-1 Receptor Inverse Agonists (Inhibition Mode)). Details: HEK293 GLP-1R CRE-luciferase, luminescence, 24 h, GLP-1R form is constitutively active; activity change, negative = inhibition: at 38.3 µM (top of the series) unless noted.
UniProt P43220, sequence (P43220 whole entry, looked up): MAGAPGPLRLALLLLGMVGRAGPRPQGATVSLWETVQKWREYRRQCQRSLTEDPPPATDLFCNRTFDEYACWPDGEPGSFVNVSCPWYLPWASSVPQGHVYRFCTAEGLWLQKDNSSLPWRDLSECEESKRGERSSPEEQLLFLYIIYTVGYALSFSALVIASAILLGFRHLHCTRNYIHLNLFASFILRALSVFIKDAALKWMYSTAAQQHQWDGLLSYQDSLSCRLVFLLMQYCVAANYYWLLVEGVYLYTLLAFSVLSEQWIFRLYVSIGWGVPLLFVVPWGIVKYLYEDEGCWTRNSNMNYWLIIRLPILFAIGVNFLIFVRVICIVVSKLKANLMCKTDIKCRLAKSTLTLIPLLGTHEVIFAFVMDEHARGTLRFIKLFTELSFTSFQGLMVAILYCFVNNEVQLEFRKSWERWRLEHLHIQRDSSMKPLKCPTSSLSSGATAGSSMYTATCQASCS
Method in brief: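 Stable HEK293 clone (constitutively active GLP-1R + cAMP-response luciferase); 200 cells/uL plated, 12 h pre-culture, compound 24 hr, 37 deg C/5% CO2; detection reagent 12 min RT; luminescence.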
Cc1cc(NCc2ccccn2)n2nc(C)c(-c3ccc(Cl)cc3)c2n1 was tested, and the Potency was inconclusive [inhibitor, full curve, poor fit].
For COc1cccc(CNC(=O)C2CCN(C(=O)N3CCOc4ccc(Cl)cc43)CC2)c1OC, the “activity change, negative = inhibition” value was inactive: -18.2%.
With CCOC(=O)c1c(C(F)(F)C(F)(F)C(F)(F)C(F)(F)F)n[nH]c1C the Potency was active: 10 µM.
In the case of CCC(CC)C(=O)Nc1cc(-c2cccc(C)c2)nn1-c1ccccc1, the Potency is reported as inconclusive [inhibitor, single point].
With O=c1c2sc3ccccc3c2n(Cc2ccccc2F)c(=O)n1Cc1ccccc1 the “activity change, negative = inhibition” value was inactive: -0.931%.
For CN(C)CCNC(=S)Nc1ccc(Cl)cc1Cl, the Potency was inconclusive [inhibitor, partial curve, poor fit].
Fc1ccc(/C=N/N2CCN(Cc3ccccc3)CC2)cc1 was tested, and the Potency was inconclusive [inhibitor, partial curve, poor fit].
With Cc1cc(-n2cccn2)ccc1CN1CCN(CC(C)C)C(CCO)C1 (stereo not given) the Potency was inconclusive [inhibitor, partial curve].
Cc1ccc(-c2nc(CS(=O)(=O)CC(=O)NCCCN(Cc3ccccc3)C(C)C)c(C)o2)cc1 was tested, and the Potency was active: 4.47 µM.
For COc1ccc(S(=O)(=O)N2CCCCCC2)cc1NC(=O)CN(C)Cc1ccc2c(c1)OCO2, the Potency was inconclusive [inhibitor, partial curve].
With N#Cc1ccc(S(=O)(=O)N2CCc3[nH]c4ccc(F)cc4c3C2)cc1 the Potency was inconclusive [inhibitor, partial curve, poor fit].
In the case of Cc1cc2cc(CCNC(=O)C(C)C)c(=O)[nH]c2cc1C, the “activity change, negative = inhibition” value is reported as inactive: -1.94%.
In the case of CN1CCc2c(sc(/N=C/c3cc(C(C)(C)C)ccc3O)c2C#N)C1, the “activity change, negative = inhibition” value is reported as inactive: -1.61%.
In the case of O=C(NCc1ccco1)c1ccc(OC2CCN(Cc3ccccn3)CC2)cc1, the “activity change, negative = inhibition” value is reported as inactive: -15.6%.
COc1cc(NC(=O)CN2C(=O)C(c3ccc(C)cc3)=NC23CCCCC3)cc(OC)c1 was tested, and the Potency was active: 10 µM.
In the case of CC(C)=CCCC(C)CN1CCC(n2nccc2NC(=O)c2ccccc2)CC1 (stereo not given), the Potency is reported as inconclusive [inhibitor, single point].
With CC(=O)OCC(=O)C1(O)CCC2C3CCC4=CC(=O)CCC4(C)C3C(O)CC21C (stereo not given) the Potency was inconclusive [inhibitor, full curve, poor fit].
In the case of COc1ccc(N(CC(O)Cn2nnc3ccccc32)S(=O)(=O)c2ccc(C)cc2)cc1 (stereo not given), the Potency is reported as inconclusive [inhibitor, single point].
With Cc1ccc(NC(=O)c2cnn(-c3ccc(C)c(C)c3)c2C2CCN(C(=O)OC(C)(C)C)CC2)c(C)c1 the “activity change, negative = inhibition” value was inactive: 9.38%.
With CC(C)N(C(=O)COc1ccc(Br)cc1Cl)C(C)C the Potency was inconclusive [inhibitor, partial curve, poor fit].
In the case of N#CCc1c[nH]c2ccc([N+](=O)[O-])cc12, the Potency is reported as inconclusive [inhibitor, single point].
With O=C(Cn1cnc2c(nnn2Cc2ccc(Cl)cc2)c1=O)N1CCN(c2ccccc2)CC1 the Potency was inconclusive [inhibitor, single point].
For CC(NC(=O)c1ccc2c(c1)N(Cc1cccc(F)c1)C(=O)c1ccccc1S2)c1ccccc1 (stereo not given), the Potency was inconclusive [inhibitor, single point].
For O=C(c1cccs1)c1no[n+]([O-])c1C(=O)c1cccs1, the Potency was inconclusive [inhibitor, single point].
For CCOc1ccccc1NC(=O)NNC(=O)COc1cccc(C)c1C, the Potency was inconclusive [inhibitor, partial curve, poor fit].
For CCOc1ccccc1CN1CCN(Cc2[nH]c3ccccc3c2C)CC1CCO (stereo not given), the Potency was inconclusive [inhibitor, partial curve, poor fit].
With O=C(O)C1CC(c2ccc(F)cc2)=NO1 (stereo not given) the “activity change, negative = inhibition” value was inactive: 1.89%.
Cc1ccc(O)c(N=NC2=C(O)CC(C)(C)CC2=O)c1 was tested, and the Potency was inconclusive [inhibitor, single point].
O=C(CSc1ccccc1)N1CCCC(N2CCN(c3ccc(F)cc3)CC2)C1 (stereo not given) was tested, and the Potency was inconclusive [inhibitor, partial curve, poor fit].
For C=CCOC(=O)C(C(=O)Cc1ccccc1)c1ccccc1 (stereo not given), the Potency was inconclusive [inhibitor, single point].
In the case of O=C(NCCC(c1ccccc1)c1ccccc1)c1ccc(Br)o1, the Potency is reported as inconclusive [inhibitor, partial curve, poor fit].
In the case of Cn1cc(CCCC(=O)NCc2ccccc2)c2ccccc21, the Potency is reported as inconclusive [inhibitor, full curve].
With COc1ccc(CNC(=O)C(c2ccco2)N(C(=O)c2snc(C(N)=O)c2N)c2ccccc2OC)cc1 (stereo not given) the Potency was inconclusive [inhibitor, single point].
CCc1ccc(CNC(=O)c2ccc3nc(SCc4ccc(F)cc4)n(C)c3c2)cc1 was tested, and the Potency was inconclusive [inhibitor, single point].
With C[C@@H]1CC=C[C@@H]2[C@H]1C(=O)N(Cc1ccccc1)[C@H]2c1cccc(C#Cc2ccccc2)c1 the Potency was inconclusive [inhibitor, partial curve, poor fit].
CCNC(=S)Nc1ccccc1-c1ccccc1 was tested, and the “activity change, negative = inhibition” value was inactive: 18.9%.
With COc1cc(NC(=O)c2cc3ccccc3cc2O)c(OC)cc1Cl the Potency was inconclusive [inhibitor, full curve].
In the case of COc1ccccc1CNC(=S)Nc1ccc2nc(N3CCN(C)CC3)cc(C)c2c1, the Potency is reported as inconclusive [inhibitor, full curve, poor fit].
In the case of N#Cc1cc2c(nc1SCC1COc3ccccc3O1)CCC2 (stereo not given), the Potency is reported as inconclusive [inhibitor, single point].
With Cn1c(N/N=C/c2cc3ccccc3nc2Cl)nc2ccccc21 the Potency was inconclusive [inhibitor, partial curve, poor fit].
COc1ccc2[nH]c(C(=O)N/N=C/c3ccc(OC)c(O)c3)cc2c1 was tested, and the Potency was inconclusive [inhibitor, partial curve, poor fit].
With Cc1cccc(Nc2nnc(SCC(=O)Nc3ncc(C(F)(F)F)cc3Cl)s2)c1C the Potency was inconclusive [inhibitor, single point].
With CCSc1nnc(NC(=O)c2cccnc2Cl)s1 the “activity change, negative = inhibition” value was inactive: 0.536%.
In the case of CSC(=S)N/N=C/c1ccccc1, the Potency is reported as inconclusive [inhibitor, full curve, poor fit].
In the case of CCCCCCOc1ccc(N2C(=O)CC(SCCN)C2=O)cc1 (stereo not given), the Potency is reported as inconclusive [inhibitor, single point].
With COc1cc(NC(=O)C(C)C)ccc1NC(=O)c1ccco1 the “activity change, negative = inhibition” value was inactive: 4.58%.
With O=S(=O)(c1cccs1)N1CCN(c2cccc(Cl)c2)CC1 the Potency was inconclusive [inhibitor, single point].
In the case of CCCCOc1ccc(S(=O)(=O)Nc2cc(OC)ccc2OC)cc1, the Potency is reported as inconclusive [inhibitor, single point].
CCOc1ccc(NC(=O)CSc2ncc(-c3ccc(F)cc3)n2Cc2ccco2)cc1 was tested, and the Potency was inconclusive [inhibitor, partial curve, poor fit].
With CCOC(=O)C1CCN(CC(=O)Nc2cc(S(=O)(=O)N3CCCCC3)ccc2Cl)CC1 the Potency was inconclusive [inhibitor, partial curve, poor fit].
With COc1ccc(Cl)cc1NC(=O)c1cc(-c2ccccc2O)n[nH]1 the “activity change, negative = inhibition” value was inactive: -20.1%.
For Cc1ccc(C)c(N2CCN(C(=O)C3CCCCN3S(=O)(=O)c3ccc(F)cc3)CC2)c1 (stereo not given), the Potency was inconclusive [inhibitor, partial curve].
CCOc1ccc(/C=C2\SC(=S)N(CCC(=O)N(CCO)c3ccccc3)C2=O)cc1 was tested, and the Potency was inconclusive [inhibitor, partial curve, poor fit].
For COc1ccccc1/C=C/CN1CCC(n2nccc2NC(=O)CCc2ccccc2)CC1, the Potency was inconclusive [inhibitor, partial curve, poor fit].
O=[N+]([O-])c1ccc(F)c(CN2CCN(c3ncc(Cc4ccccc4)cn3)CC2)c1 was tested, and the Potency was inconclusive [inhibitor, single point].
With S=C1NCN(Cc2ccco2)CN1CCc1ccccc1 the Potency was inconclusive [inhibitor, single point].
For Cn1c(C(=O)NCc2cccs2)cc2oc3ccccc3c21, the “activity change, negative = inhibition” value was inactive: -11.3%.
For O=C(CC1C(=O)NCCN1Cc1ccccc1C(F)(F)F)NC1CCCCCC1 (stereo not given), the Potency was inconclusive [inhibitor, single point].
For COc1ccc(C2CC(c3ccccc3OC(C)=O)=NN2C(=O)/C=C/c2ccccc2)cc1OC (stereo not given), the Potency was inconclusive [inhibitor, single point].
With CC(C)Oc1ccc(C(CC(=O)NCCCN(C)C)c2ccc(F)cc2)cc1 (stereo not given) the Potency was inconclusive [inhibitor, single point].
For CCOC(=O)Nc1oc2ccccc2c(=O)c1C, the “activity change, negative = inhibition” value was inactive: 0%.
In the case of O=C(Nc1ccccc1N1CCCCC1)c1cccc([N+](=O)[O-])c1, the Potency is reported as inconclusive [inhibitor, partial curve, poor fit].
In the case of COC(=O)c1sccc1NC(=O)CN1CCN(c2ccc(F)cc2)CC1, the Potency is reported as inconclusive [inhibitor, single point].
In the case of COc1ccc(C(NC(=O)CC(C)C)c2c(O)ccc3ccccc23)cc1 (stereo not given), the Potency is reported as inconclusive [inhibitor, single point].
With CC1=C(C(=O)Nc2ccc(Cl)cc2)C(C(C)C)n2nc(SCc3cccc(C)c3)nc2N1 (stereo not given) the “activity change, negative = inhibition” value was inactive: -14.7%.

— PubChem BioAssay AID624417 (National Center for Advancing Translational Sciences (NCATS), 2012)
Further: nearly all actives have a fitted effect of over 55% in size.
On the % scale 0 is the no-effect control and ±100 the full control effect; potency means the concentration at half of the fitted maximal effect; tags describe the fitted curve by direction and shape.
